In the supplement of paper PMC2702839:
Structures can show the parent of a compound that is named as a salt. Some of the results follow.

Tested on: Schistosoma mansoni schistosomula
Assay: phenotypic hit in primary schistosomula screen (any phenotype vs DMSO control) (binary (1 = hit, 0 = no phenotype)); higher = active (phenotype induced)
Settings: 1 µM; time (d): 7

Row | SMILES | phenotypic hit
1 | COc1ccc2c(=O)c(CC(=O)O)coc2c1 [anhydrobrazilic acid] | inactive: 0
2 | CNc1ccccc1C(=O)N1CCc2c([nH]c3ccccc23)C1=O [rhetsinine] | inactive: 0
3 | Cc1cc(N)c2ccccc2[n+]1CCCCCCCCCC[n+]1c(C)cc(N)c2ccccc21 [dequalinium chloride] | inactive: 0
4 | Nc1c2c(nc3ccccc13)CCCC2O (stereo not drawn) [hydroxytacrine maleate] | inactive: 0
5 | COc1ccccc1OCC(O)COC(N)=O (stereo not drawn) [methocarbamol] | inactive: 0
6 | NCCNC(=O)c1ccc(Cl)cc1 [Ro 16-6491 hydrochloride] | inactive: 0
7 | COc1ccc2cc(C(C)C(=O)O)ccc2c1 (single isomer, unassigned; (+)) [(+)naproxen] | inactive: 0
8 | CC1(C)CC2C1CCC1(C)OC2(C)CCC1O (stereo not drawn) [3,7-epoxycaryophyllan-6-ol] | inactive: 0
9 | OCc1ccccc1O [salicyl alcohol] | inactive: 0
10 | O=C(c1ccccc1)c1ccc2n1CCC2C(=O)O (stereo not drawn) [ketorolac tromethamine] | inactive: 0
11 | N[C@@H](C(=O)O)[C@@H](O)[C@H](O)[C@H](O)CO [glucosaminic acid] | inactive: 0
12 | COc1c(N2CCNC(C)C2)c(F)cc2c(=O)c(C(=O)O)cn(C3CC3)c12 (stereo not drawn) [gatifloxacin] | inactive: 0
13 | CN1Cc2c(N)cccc2C(c2ccccc2)C1 (stereo not drawn) [Nomifensine maleate] | inactive: 0
14 | C=CCSCC1Nc2cc(Cl)c(S(N)(=O)=O)cc2S(=O)(=O)N1 (stereo not drawn) [althiazide] | inactive: 0
15 | Cc1cc(O)c2c(O)c3c(O)cccc3cc2c1 [chrysarobin] | inactive: 0
16 | COc1ccc2oc3ccccc3c(=O)c2c1 [2-methoxyxanthone] | inactive: 0
17 | NC(=O)c1cccc(N)c1 [3-aminobenzamide] | inactive: 0
18 | c1ccc(CN(CC2=NCCN2)c2ccccc2)cc1 [antazoline phosphate] | inactive: 0
19 | CC(=O)c1ccc(O)c(CC=C(C)C)c1 [3-prenyl-4-hydroxyacetophenone] | inactive: 0
20 | CC(=O)OCC(=O)[C@H]1CC[C@H]2[C@@H]3CCC4=CC(=O)CC[C@]4(C)[C@H]3CC[C@]12C [desoxycorticosterone acetate] | inactive: 0
21 | COc1ccc(-c2cc(=O)c3ccccc3o2)cc1OC [3',4'-dimethoxyflavone] | inactive: 0
22 | COc1cc(O)ccc1C(C)=O [isopeonol] | inactive: 0
23 | CC1(C)[C@@H](OC(=O)CCC(=O)O)CC[C@]2(C)[C@H]3C(=O)C=C4[C@@H]5C[C@@](C)(C(=O)O)CC[C@]5(C)CC[C@@]4(C)[C@]3(C)CC[C@@H]12 [carbenoxolone sodium] | inactive: 0
24 | CC(CN(C)C)CN1c2ccccc2Sc2ccccc21 (stereo not drawn) [trimeprazine tartrate] | inactive: 0
25 | Cc1cc(=O)c2c(o1)-c1c(cc(O)c(O)c1C(=O)O)OC2 [citromycetin] | inactive: 0

Row | SMILES | phenotypic hit
26 | N=C(N)NCCN1CCCCCCC1 [guanethidine sulfate] | inactive: 0
27 | CC12CCC3c4ccc(OCc5ccccc5)cc4CCC3C1C[C@@H](O)[C@@H]2O (stereo partly drawn) [estriol benzyl ether] | inactive: 0
28 | O=C(/C=C/c1ccc(O)c(O)c1)O[C@@H]1C[C@](O)(C(=O)O)C[C@@H](O)[C@H]1O [chlorogenic acid] | inactive: 0
29 | CC[C@@H](CO)NCCN[C@@H](CC)CO [ethambutol hydrochloride] | inactive: 0
30 | CC1(C)Oc2ccc3ccc(=O)oc3c2CC1O (stereo not drawn) [lomatin] | inactive: 0
31 | Nc1ccccc1C(=O)CC(N)C(=O)O (stereo not drawn) [kynurenine] | inactive: 0
32 | CCCCC/C=C\C/C=C\C/C=C\C/C=C\CCCC(=O)O [arachidonic acid] | inactive: 0
33 | COc1cc(NC(C)CCCN)c2ncccc2c1 (stereo not drawn) [primaquine diphosphate] | inactive: 0
34 | CCCCC1(COC(=O)CCC(=O)O)C(=O)N(c2ccccc2)N(c2ccccc2)C1=O [suxibuzone] | inactive: 0
35 | COC(=O)[C@@H]1OC(=O)[C@H]2O[C@@]23[C@@]1(C)CCC1[C@@]2(C)CCC(=O)C(C)(C)C2C[C@@H](OC(C)=O)[C@]13C (stereo partly drawn) [dihydrogeduninic acid, methyl ester] | inactive: 0
36 | CSc1ccc2c(c1)N(CCC1CCCCN1C)c1ccccc1S2 (stereo not drawn) [Thioridazine hydrochloride] | inactive: 0
37 | CC1=C(/C=C/C(C)=C/C=C/C(C)=C\C(=O)O)C(C)(C)CCC1 [isotretinon] | inactive: 0
38 | CC/C(=C(/CC)c1ccc(O)cc1)c1ccc(O)cc1 [diethylstilbestrol] | inactive: 0
39 | Cc1cc(-c2ccccc2)nnc1NCCN1CCOCC1 [minaprine hydrochloride] | inactive: 0
40 | COc1ccc(-c2cc(=O)c3c(OC(C)=O)cc(OC(C)=O)cc3o2)cc1 [acacetin diacetate] | active: 1
41 | NC(N)=Nc1nc(CSCC/C(N)=N/S(N)(=O)=O)cs1 [famotidine] | inactive: 0
42 | COC1(C)CCC2OC2(C)CCC2C1CC2(C)C (stereo not drawn) [2-methoxy-5 (6)epoxy-tetrahydrocaryophyllene] | inactive: 0
43 | CN(C)[C@@H]1C(O)=C(C(N)=O)C(=O)[C@@]2(O)C(O)=C3C(=O)c4c(O)cccc4[C@@](C)(O)[C@H]3[C@H](O)[C@@H]12 [oxytetracycline] | inactive: 0
44 | CN(C)c1ccc(O)c2c1C[C@H]1C[C@H]3[C@H](N(C)C)C(O)=C(C(N)=O)C(=O)[C@@]3(O)C(O)=C1C2=O [minocycline hydrochloride] | inactive: 0
45 | Cc1ccsc1/C=C/C1=NCCCN1C [morantel citrate] | inactive: 0
46 | O=C(O)CCCC[C@@H]1CCSS1 (racemic) [thioctic acid] | inactive: 0
47 | O=C(COc1ccc(Cl)cc1)N1CCN(Cc2ccc3c(c2)OCO3)CC1 [fipexide hydrochloride] | inactive: 0
48 | CN(Cc1cnc2nc(N)nc(N)c2n1)c1ccc(C(=O)N[C@@H](CCC(=O)O)C(=O)O)cc1 [methotrexate] | inactive: 0
49 | O=c1c(O)cc([C@H]2Oc3cc(O)cc(O)c3C[C@H]2O)cc2c([C@H]3Oc4cc(O)cc(O)c4C[C@H]3O)cc(O)c(O)c12 [theaflavin] | inactive: 0
50 | CCN(CC)CCNc1ccc(CO)c2sc3ccccc3c(=O)c12 [hycanthone] | active: 1

Row | SMILES | phenotypic hit
51 | CC(C)(C)CC(C)(C)c1ccc(O)c(Cc2ccc(Cl)cc2Cl)c1 [clofoctol] | active: 1
52 | CCN(CC)CCOC(=O)C(c1ccccc1)c1ccccc1 [adiphenine hydrochloride] | inactive: 0
53 | CCOC(=O)c1ccc(N)cc1 [benzocaine] | inactive: 0
54 | CC(C)CCCC(C)C1CCC2C3=CCC4CC(O)CCC4(C)C3CCC21C (stereo not drawn) [lathosterol] | inactive: 0
55 | Cc1ccc(S(=O)(=O)NC(=O)NN2CCCCCC2)cc1 [Tolazamide] | inactive: 0
56 | COc1cccc(OC)c1C(=O)N[C@@H]1C(=O)N2[C@@H]1SC(C)(C)[C@@H]2C(=O)O [methicillin sodium] | inactive: 0
57 | CO[C@H]1C[C@H](O[C@H]2[C@H](C)[C@@H](O[C@@H]3O[C@H](C)C[C@H](N(C)C)[C@H]3O)[C@@H](C)C[C@@]3(CO3)C(=O)[C@H](C)[C@@H](O)[C@@H](C)[C@@H](C)OC(=O)[C@@H]2C)O[C@@H](C)[C@@H]1O [oleandomycin phosphate] | inactive: 0
58 | Nc1ccc(S(=O)(=O)Nc2ccccn2)cc1 [sulfapyridine] | inactive: 0
59 | O=C(O)[C@H](O)[C@@](O)(Cc1ccc(O)cc1)C(=O)O [piscidic acid] | inactive: 0
60 | CC1(C)[C@H]2CC[C@]1(C)C(=O)C2 [1s-camphor] | inactive: 0
61 | Nc1ccn([C@@H]2O[C@H](CO)[C@@H](O)[C@@H]2O)c(=O)n1 [cytarabine] | inactive: 0
62 | CC(=O)N[C@@H](C=O)[C@@H](O)[C@H](O)[C@H](O)CO [acetylglucosamine] | inactive: 0
63 | CC(C)Cn1c(=O)n(C)c(=O)c2[nH]cnc21 [3-Isobutyl-1-methylxanthine] | inactive: 0
64 | O=c1[nH]cnc2c1ncn2[C@@H]1O[C@H](CO)[C@@H](O)[C@H]1O [inosine] | inactive: 0
65 | COc1cc([C@@H]2c3cc4c(cc3[C@@H](O[C@@H]3O[C@@H]5CO[C@@H](c6cccs6)O[C@H]5[C@H](O)[C@H]3O)[C@H]3COC(=O)[C@H]23)OCO4)cc(OC)c1O [teniposide] | inactive: 0
66 | CC1(C)C=Cc2cc3ccc(=O)oc3cc2O1 [xanthyletin] | inactive: 0
67 | O=c1ccc2ccccc2o1 [coumarin] | inactive: 0
68 | CN(C)CCCN1c2ccccc2Sc2ccc(Cl)cc21 [Chlorpromazine hydrochloride] | active: 1
69 | CCOC(=O)c1c(C)cc(O)cc1O [orsellinic acid, ethyl ester] | inactive: 0
70 | O=c1ccn([C@@H]2O[C@H](COP(=O)(O)OP(=O)(O)OP(=O)(O)O)[C@@H](O)[C@H]2O)c(=O)[nH]1 [uridine triphosphate trisodium] | inactive: 0
71 | COc1cc(O)c2c(=O)cc(-c3ccc(O)cc3)oc2c1 [genkwanin] | inactive: 0
72 | CC(=O)[C@H]1CC[C@H]2[C@@H]3CC=C4C[C@@H](O)CC[C@]4(C)[C@H]3CC[C@]12C [pregnenolone] | inactive: 0
73 | CN(C)c1ccc(C(=C2C=CC(=[N+](C)C)C=C2)c2ccc(N(C)C)cc2)cc1 [gentian violet] | inactive: 0
